Test results reported in patent publication US20260042854A1, “ANTI-GLP-1R ANTIBODIES AND USES THEREOF” (SCIWIND BIOSCIENCES USA CO., LTD, priority 2022, published 2026).

Assays:
Monkey GLP-1R = molecular target: T1, Monkey GLP-1R (Macaca fascicularis, UniProt F8V479); experiment: cAMP HTRF antagonism assay in HEK293 transfected with monkey GLP-1R; format: cell-based
T1 construct: expressed in transfected cells; host or cells: HEK293 (ATCC, CRL-1573)
Method: HEK293 cells (ATCC, cat no. CRL-1573) were transfected with GLP-1R_pcDNA3.1/G418 (+) plasmids which can transcribe the mRNA of human (NM_002062.5), monkey (JN033215.1) and mouse (NM_021332.2) GLP-1R polypeptide. […] The plate was further incubated at 37° C. for 120 minutes. Finally, the CAMP level was measured with cAMP HTRF kit (Cisbio, 62AM4PEB). […] The data were analyzed by four-parameter curve fitting with GraphPad Prism 9, and IC50 was calculated.

humanized GLP-1R mice = experiment: IPGTT in humanized GLP-1R mice (exogenous GLP-1 added); format: in vivo, mouse
Method: 10-week-old female humanized GLP-1R mice (25-28 g, Shanghai Model Organisms Center Inc.) were assigned into 5 groups, with 5 mice in each group, and each group was treated according to the scheme in Table 6. The antibody treatment groups were subcutaneously injected with antibody, while the other groups were subcutaneously injected with vehicle (PBS) once a week for 2 consecutive weeks. IPGTTs were performed one day after the administration. The first subcutaneous administration of the antibody was on Day 0, and the second subcutaneous administration was on Day 7.
The blood glucose levels of the mice before (0 min) and 15 min, 30 min, 60 min, 90 min, 120 min and 180 min after the administration of glucose were measured with blood glucose meter. The AUCs of the blood glucose-time curves of each mouse from 0 to 180 min were calculated with GraphPad Prism 9. […] Statistical differences were analyzed with One-way ANOVA. […]
10-week-old female humanized GLP-1R mice (25-28 g) were assigned into 5 groups, with 5 mice in each group, and each group was treated according to the scheme in Table 10. […] The blood glucose levels of the mice before (0 min) and 15 min, 30 min, 60 min, 90 min, 120 min and 180 min after the administration of glucose were measured with blood glucose meter. The AUCs of the blood glucose-time curves of each mouse were calculated with GraphPad Prism 9. […]

C57BL/6 mice = experiment: OGTT in C57BL/6 mice (no exogenous GLP-1 added); format: in vivo, mouse; conditions: wildtype C57BL/6, single s.c. P16288 100 or 200 nmol/kg
Method: 6-week-old male C57BL/6 mice (18-21 g) were assigned into 4 groups, with 5 mice in each group. Each group was given a single subcutaneous injection of vehicle (PBS), P16288 (200 nmol/kg), P16288 (100 nmol/kg) or P16289 (100 nmol/kg), and were fasted for 18 hours after administration. After the fasting, glucose solution was given to mice by oral administration at a dose of 13.9 mmol/kg. The blood glucose levels of the mice before (0 min) and 15 min. 30 min, 60 min, 90 min, 120 min, 180 min and 270 min after the administration of glucose were measured with blood glucose meter. The AUCs of the blood glucose-time curves of each mouse from 0 to 270 min were calculated with GraphPad Prism 9. The blood glucose levels and the AUCs were shown in Mean±SEM and the differences among groups were compared. Statistical differences were analyzed with One-way ANOVA. As compared with the vehicle group, * stands for p<0.05; ** stands for p<0.01; *** stands for p<0.001; stands for p<0.0001: ns stands for no significance. The significance markers were not shown in the line chart since they would overlap and be difficult to distinguish.

[1] = Pharmacokinetics in SD rats, single subcutaneous injection; format: in vivo; conditions: 5 mg/kg single s.c., mean
Method: 6-8-week-old male SD rats were given a single subcutaneous injection of P16288 or P16289 at a dose of 5 mg/kg, with 3 rats in each group. The whole blood of the rats at 5 minutes before administration (−5 min) and 2 h, 4 h, 24 h, 48 h, 72 h, 96 h, 120 h, 168 h, 192 h, 240 h, 264 h after administration were collected to prepare EDTA plasma. The concentration of antibodies in plasma was measured by ELISA. The detailed procedure of the measurement is as follow: The 96-well plate was coated with 1 μg/mL of AffiniPure Goat Anti-Human IgG antibody (Jackson lab, cat. no. 109-005-098) diluted in PBS and incubated overnight at 4° C. The coating solution was removed and the plate was washed with PBST (PBS+0.05% Tween). Then the plate was blocked with 1% BSA, wash with PBST, and added with the standard (P16288 or 16289) diluted in PBS+0.1% BSA+0.1% blank rat plasma at gradient concentrations of 1000, 200, 40, 8, 1.6, 0.32, 0.064, 0 nM, which was used for plotting a standard curve. At the same time, the plasma samples diluted 1000 times in PBS+0.1% BSA were added to other wells, and the plate was incubated at room temperature for 60 min. After washed with PBST, horseradish peroxidase-labeled Goat Anti-Human IgG, Fcγ fragment specific (Jackson lab, cat. no. 109-035-098) was added and the plate was incubated for 60 min. After the plate was washed with PBST, TMB substrate was added for coloration. The reaction was finally terminated with 0.5 M H2SO4, and the absorbance was measured with microplate reader at 450 nm. Drug concentration-time curves were plotted with GraphPad Prism 9, and the pharmacokinetic parameters (Cmax, Tmax, T1/2, AUC and MRT) of the drugs were calculated in non-compartmental model.

T1 sequence (F8V479 24-463): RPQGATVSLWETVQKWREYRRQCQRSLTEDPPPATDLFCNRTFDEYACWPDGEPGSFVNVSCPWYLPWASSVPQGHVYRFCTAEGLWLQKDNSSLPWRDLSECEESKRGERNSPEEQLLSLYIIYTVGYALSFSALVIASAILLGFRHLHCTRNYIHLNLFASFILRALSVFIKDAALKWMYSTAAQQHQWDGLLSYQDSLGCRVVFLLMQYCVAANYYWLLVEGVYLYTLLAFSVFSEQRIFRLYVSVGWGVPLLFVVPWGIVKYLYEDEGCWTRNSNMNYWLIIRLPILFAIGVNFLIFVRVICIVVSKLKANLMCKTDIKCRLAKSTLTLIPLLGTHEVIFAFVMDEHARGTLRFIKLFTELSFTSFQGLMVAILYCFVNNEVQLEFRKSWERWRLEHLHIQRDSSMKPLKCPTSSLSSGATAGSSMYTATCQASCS

B1: P16288: Fully human anti-GLP-1R IgG4 (S228P) antibody; heavy chain SEQ ID NO: 9, light chain SEQ ID NO: 10 (antibody)
heavy: QVQLVQSGAEMKKPGASVKVSCKTSGYRFSTYVISWVRQTPGQGLEWMGWISPYTGDIDYAQKFQGRVTITADESTSTAYMELSRLRSDDTAVYYCARERDGYNFPGMDVWGQGTTVTVSSASTKGPSVFPLAPCSRSTSESTAALGCLVKDYFPEPVTVSWNSGALTSGVHTFPAVLQSSGLYSLSSVVTVPSSSLGTKTYTCNVDHKPSNTKVDKRV[human IgG4 Fc with S228P (EU numbers) not listed]
light: DIQLTQSPSFLSASVGDRVTITCRASQGISSYLAWYQQKPGRAPKLLIYSASTLQRGVPSRFSGSGSGTDFTLTISSLQPEDYATYYCQQADSFPPSFGPGTKVDIKRTVAAPSVFIFPPSDEQLKSGTASVVCLLNNFYPREAKVQWKVDNALQSGNSQESVTEQDSKDSTYSLSSTLTLSKADYEKHKVYACEVTHQGLSSPVTKSFNRGEC
Monkey GLP-1R
  antagonism of activation of monkey GLP-1R by GLP-1 (in words): can antagonize the activation of human and monkey GLP-1R by GLP-1 at a similar level
Humanized GLP-1R mice; P16288 s.c. Day 0 and Day 7, IPGTT up to Day 15
  duration of regulatory role on blood glucose: more than 8 days
Humanized GLP-1R mice; antibody s.c. once a week x2 (P16288 100 and 200 nmol/kg, P16289 200 nmol/kg), IPGTT Day 1, 8, 15, GLP-1 25.0 nmol/kg i.p.
  antagonism of blood glucose reduction induced by exogenous GLP-1 (in words): can effectively antagonize the blood glucose reduction induced by exogenous GLP-1
C57BL/6 mice
  blood glucose levels in OGTT versus vehicle group (in words): no statistical difference from the vehicle group
[1]
  AUC0-inf obs: 2435.1 µg·h/mL
  Cmax: 15200 ng/mL
  MRT0-inf obs: 132.2 h
  T1/2: 99.1 h
  Tmax: 42.0 h
